From PMC4336329 (PLoS ONE, 2015)
Hit rate of the full screen: of about 310,000 compounds, about 14,000 (4.5%) showed an effect of 50% or more. The effect is printed as a negative number. Some of the results follow.

target: human ether-à-go-go-related gene (hERG) potassium channel (human, UniProt Q12809); test: primary screen, population patch clamp on CHO cells stably expressing hERG
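Also: peak tail current of the secondary pulse compared with the same well before compound.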

Chain of human ether-à-go-go-related gene (hERG) potassium channel (Q12809 whole entry, looked up): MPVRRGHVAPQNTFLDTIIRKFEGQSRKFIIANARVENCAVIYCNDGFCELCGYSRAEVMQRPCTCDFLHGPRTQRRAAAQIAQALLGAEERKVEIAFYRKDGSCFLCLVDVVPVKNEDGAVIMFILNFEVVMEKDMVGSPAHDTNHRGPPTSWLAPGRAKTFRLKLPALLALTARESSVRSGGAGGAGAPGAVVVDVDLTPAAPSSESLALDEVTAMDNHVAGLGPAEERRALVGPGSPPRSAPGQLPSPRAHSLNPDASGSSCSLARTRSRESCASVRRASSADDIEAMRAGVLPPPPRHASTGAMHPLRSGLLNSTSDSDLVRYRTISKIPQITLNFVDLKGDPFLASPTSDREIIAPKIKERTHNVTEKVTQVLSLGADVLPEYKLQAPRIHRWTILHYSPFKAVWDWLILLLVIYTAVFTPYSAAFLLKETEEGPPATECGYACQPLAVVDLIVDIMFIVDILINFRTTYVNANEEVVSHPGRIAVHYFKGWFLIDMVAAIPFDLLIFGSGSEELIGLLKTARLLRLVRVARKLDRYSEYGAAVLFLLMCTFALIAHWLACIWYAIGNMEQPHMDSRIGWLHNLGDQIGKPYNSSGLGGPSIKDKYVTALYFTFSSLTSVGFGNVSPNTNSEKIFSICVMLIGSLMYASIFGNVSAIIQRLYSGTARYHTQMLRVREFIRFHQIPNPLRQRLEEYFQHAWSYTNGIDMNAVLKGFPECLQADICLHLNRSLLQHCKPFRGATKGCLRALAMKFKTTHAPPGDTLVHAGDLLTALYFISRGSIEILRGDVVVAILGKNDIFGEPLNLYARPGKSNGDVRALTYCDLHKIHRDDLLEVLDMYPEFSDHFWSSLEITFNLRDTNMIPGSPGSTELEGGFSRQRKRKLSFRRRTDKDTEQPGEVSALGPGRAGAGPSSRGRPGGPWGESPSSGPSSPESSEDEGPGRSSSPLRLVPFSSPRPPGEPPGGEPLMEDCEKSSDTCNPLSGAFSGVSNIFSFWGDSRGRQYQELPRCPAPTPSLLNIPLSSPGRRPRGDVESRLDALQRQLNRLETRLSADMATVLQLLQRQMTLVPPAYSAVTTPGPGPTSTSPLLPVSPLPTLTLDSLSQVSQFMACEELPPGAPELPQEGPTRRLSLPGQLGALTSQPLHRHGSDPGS

Row | Compound | hERG current change (%, negative = inhibition) at 10uM [%]
1 | CC(C)Cc1nnc(NC(=O)C2=COCCO2)s1 | 24.4
2 | O=C1COc2ccc(S(=O)(=O)N3CCCC3)cc2N1 | 19.6
3 | COC(=O)c1c(C)oc(C)c1S(=O)(=O)NCc1ccc(OC)cc1 | 5.07
4 | COc1cc(N=Cc2c(O)c3ccccc3oc2=O)c(OC)cc1Cl | 12.8
5 | CC(=O)NC1=NN(C(C)=O)C(C)(CCS(=O)(=O)c2ccc(Cl)c(Cl)c2)S1 (centres unmarked) | -2.84
6 | COc1ccc(CN2CCC(n3nccc3NC(=O)C3CC3)CC2)c(Cl)c1OC | -39.2
7 | O=C(OCc1ccc(F)cc1)c1cc(=O)c2ccccc2o1 | 9.19
8 | Nc1cc(=O)[nH]c(SCC(=O)Nc2ccccc2Sc2ccc(Cl)cc2)n1 | 14.5
9 | Cc1ccc(C(=O)OCC(=O)NCc2ccc3c(c2)OCO3)s1 | -2.69
10 | CCOc1ccc(C(=O)NCCN2CCOCC2)cc1 | 10.3
11 | CCn1nc(C)c(C2C(C#N)=C(N)OC3=C2C(=O)CCC3)c1C (centres unmarked) | -7.39
12 | O=C(NN=C1CCCCCC1)c1cccs1 | -1.18
13 | COc1cccc(C(=O)Nc2nnc(CCS(=O)(=O)c3ccc(C)cc3)s2)c1 | 20.3
14 | Cc1c(C)n(CCc2c[nH]c3ccccc23)ccc1=O | 12.6
15 | Nc1ccc(Cc2ccc(N)c(C(=O)O)c2)cc1C(=O)O | 22.6
16 | COc1cc(S(=O)(=O)N2CCOCC2)ccc1NC(=O)COC(=O)C12CC3CC(CC(C3)C1)C2 | -21.8
17 | COc1ccc(NS(=O)(=O)c2c(C)[nH]c(C)c2C(=O)N2CCCCC2)cc1Cl | 0.953
18 | CC(Sc1nccn1C)C(=O)c1c(N)n(C)c(=O)n(C)c1=O (centres unmarked) | 15.7
19 | COc1ccc(N(CC(=O)NCc2ccccc2)S(=O)(=O)c2c(C)n[nH]c2C)cc1 | -35.6

Row | Compound | hERG current change (%, negative = inhibition) at 10uM [%]
20 | CC(=O)N(C)c1nc(-c2ccc(Cl)cc2)cs1 | 20.6
21 | CC(C)c1ccccc1OCCNC(=S)NC(=O)c1cccnc1 | 41.7
22 | CCOc1ccc(CCNC(=O)c2nnn(CC(=O)Nc3c(C)cc(C)cc3C)c2N)cc1OCC | 12.6
23 | COc1cc(OC)cc(-c2c(-c3cccs3)c3cc(-c4ccc(SC)cc4)ccc3n2C)c1 | 4.23
24 | O=C(CNC(=O)c1ccc(Oc2ccccc2)cc1)OC1CCCCC1=O (centres unmarked) | -72.2
25 | c1csc(CNc2nc(-c3cccs3)nc3ccccc23)c1 | -6.81
26 | N#CC1(NC(=O)COc2ccc3ccc(=O)oc3c2)CCCCC1 | -2.81
27 | O=C(CC1S/C(=N/N=C/c2cccs2)NC1=O)Nc1ccccc1F (centres unmarked) | 65.3
28 | Cc1ccnc(NC(=S)NC(=O)c2ccco2)c1 | -10.3
29 | Cn1c(Cc2ccccc2)nnc1SCC(=O)c1ccc(Br)s1 | -26.1
30 | C=C(CO)CC1CC(O)[C@]2(C)OC3CC4OC5C[C@]6(C)O[C@]7(C)CCC8OC9C[C@]%10(C)OC%11C(C)=CC(=O)OC%11CC%10OC9C[C@@H](C)C8OC7CC6O[C@]5(C)C/C=C\C4OC3CC2O1 (some centres unmarked) | 10.7
31 | COC(=O)CN1C(=S)N(Cc2ccccc2)C(=O)C1CC(=O)Nc1ccc(Br)cc1 (centres unmarked) | 12.9
32 | CCCCNC(=O)Cn1cnc2c(cnn2-c2ccc(C)c(C)c2)c1=O | -7
33 | COc1cccc(N2CCN(C(=S)NCCc3ccccc3)CC2)c1 | 3.76
34 | COc1ccc(Cl)cc1NC(=O)CCn1cnc2ccccc2c1=O | -2.16
35 | CCOc1ccc(OCC(=O)OCC(=O)NNC(=O)c2ccc([N+](=O)[O-])cc2)cc1 | 0.0683
36 | O=C(Nc1ccc(F)cc1F)c1c(C(F)(F)F)ccnc1Oc1ccccc1 | 9.99
37 | Nc1cc(C(=O)OCC(=O)NCC2CCCO2)ccc1Cl (centres unmarked) | 11.7
38 | Cc1ccc(-c2csc(N/N=C/c3ccco3)n2)c(C)c1 | 9.24

Row | Compound | hERG current change (%, negative = inhibition) at 10uM [%]
39 | S=c1[nH]nc(Cc2ccccc2)n1-c1ccc(Cl)cc1 | 10.3
40 | COC(CN1CCc2c(C)nc3c(C#N)cnn3c21)OC | 5.84
41 | Cc1cccc(NC(=S)NC2CCSc3ccccc32)c1 (centres unmarked) | 14.5
42 | COC(=O)N1[C@H](Cc2ccccc2)C=C[C@]1(C)C(=O)O | 6.17
43 | CCCNC(=O)C(=O)NCC(c1ccc2c(c1)OCO2)N1CCN(c2ccc(F)cc2)CC1 (centres unmarked) | -17.1
44 | COc1ccc(-n2cc(-c3ccccc3)[nH]c2=S)c(OC)c1 | -0.146
45 | O=C(CCNS(=O)(=O)c1ccccc1)OCC(=O)c1ccc(Br)cc1 | -22.3
46 | Cc1cc(N2CCOCC2)nc2ccc(NC(=O)CCC(=O)N3CCC4(CC3)OCCO4)cc12 | -3.4
47 | CC1CCN(C(=O)CN2C(=O)C(=O)N(C)C2=O)c2ccccc2S1 (centres unmarked) | 5.74
48 | O=[N+]([O-])c1cc(/C=N/n2cnnc2)ccc1N1CCCC1 | -38.7
49 | CC(C)(C)OC(=O)N1CCCN(C(=O)Nc2ccc(C(F)(F)F)cc2)CC1 | -10.4
50 | Cc1cc(Cl)ccc1C(=O)C1CCCN(C(=O)c2ccsc2)C1 (centres unmarked) | -8.49
51 | Cn1c(N)c(C(=O)COC(=O)c2ncc(Cl)c(Cl)c2Cl)c(=O)n(C)c1=O | -46.8
52 | Cc1ccc(-n2c(CNc3ccc(C)c(Cl)c3)n[nH]c2=S)cc1 | 0.601
53 | Clc1ccc(-c2cc(CN3CCOCC3)no2)cc1 | 23.1
54 | Cc1ccccc1NC(=S)NNC(=O)c1cccnc1 | 11.5
55 | Nc1ccc(C2CCCc3nonc32)c2nonc12 (centres unmarked) | 15
56 | NC(=S)N/N=C/c1ccc(/C=N/NC(N)=S)cc1 | 30.7
